Laboratory results published in the supplement of paper PMC10126150.
Values marked as one replicate rest on one cluster of the flow cell; about a third of the high ones do not repeat.

System: ATP
Experiment: switch fluorescence ratio, 500 uM ATP over buffer (Cy3 cluster intensity, sum of 5 cycles each) (fold (ratio)); higher = stronger signal-on switching upon ATP binding; sequences stand for … in TCGTCGGCAGCGTCAGATGTGTATAAGAGACAGTTTTTTTTTTTTTTTTTTTTTTTTT…TC
Conditions: aptamer strand: ATP DNA aptamer (quencher-CACCTGGGGGAGTATTGCGGAGGAAGG + anchor), 100 nM annealed; ATP concentration: 500 uM; one replicate
Summary of the method: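 Values give the fluorescence ratio for each switch-domain sequence, averaged from per-cluster ratios of summed target-cycle to summed buffer-cycle Cy3 intensity. The Cy3-labelled switching-strand clusters sat on a modified Illumina MiSeq flow-cell, were annealed to 100 nM quencher-labelled ATP aptamer, and were imaged in selection buffer, then after 15 min with 500 uM ATP at 22 °C. Five cycles ran with NaOH stripping and re-annealing between them, and clusters outside 100-1000 RFU were excluded.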
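Further: ATP exposure 15 min at 22 °C before imaging.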

Sequence | switch fluorescence ratio
CTAGCCCAAA | 0.989
TCGACCGCCC | 2.25
GGTAGGACGC | 0.987
GGTGTTGGCC | 1.01
TAGAGGTGGT | 0.975
GGTGGTGATC | 0.995
GTGTGGAAGT | 1.02
CGACCTGGGT | 1.04
CGCTTCTG | 0.935
TATTATATAC | 1.08
ACCCGCTAAT | 2.61
TTCTTGGAAC | 1.03
TTTACTTAGA | 1.06
CTGCGAAGGT | 1.01
GGGTGTAGT | 1.02
TATTTTCGCC | 0.992
CAGATAGGCC | 1.02
ATGAGGTCAT | 0.963
TCCAGACTTT | 1.05
GGATTAATAG | 0.962
GAGTTGGACT | 0.993
CTGTCTTACT | 1.05
GGTTGCGTAT | 1.01

Sequence | switch fluorescence ratio
TTCACCTCTT | 1
AGTAGTGCAA | 1.24
GCCGGGGTTT | 0.997
AATCCCGGTG | 1.01
ATGACGGGAC | 1.22
GGAATTCTTA | 1.01
TGCTGGTTAT | 1.02
TCCACCAGCA | 2.59
CACTCTATCT | 1.02
GTCAGACGCC | 1.1
AAGCAGAAC | 2.31
TGGGCCAGCA | 0.97
TCTGTAACC | 1.85
AAGGGACTGA | 1.04
CGCGGGTGGG | 1.01
AGCGAGCCCA | 0.965
GATATGAAGC | 1.01
TCTGTACTCG | 1
TCCTCGTTCA | 1.07
TCCATCACCG | 1.02
CTACTCTGGG | 1.02
CAGAGAGTCG | 0.958
AACTTCCGTA | 1.25

Sequence | switch fluorescence ratio
CAGTCATTGG | 1
CTAGGTTTCC | 1.02
ATATGCTATG | 1.02
TGGGGTTCAA | 1.02
TATGCCACC | 1.03
GACTGCTGGG | 1
TAGACTGATT | 1
GGTTTACTCT | 0.978
GGCATCAGCG | 1.01
AGAATGCTGA | 0.982
GGGGGTCAC | 1.01
CATAATCAGC | 0.98
AATTTCAGCG | 0.968
ATCCGATTCT | 1.01
CTAATAGTTC | 0.949
TATGTGCCC | 1.03
GATGACGGGT | 1.03
TGCGTGGTAA | 1.03
TGGATGAAG | 0.978
CGAGAGTGTG | 1.01
TGGAGGAAAC | 1.05
ACCCTAAATG | 0.979
AGTCCTAATC | 1.02

Sequence | switch fluorescence ratio
GACTGGATTT | 1.08
GTTGCGGAAA | 1
GAAAGCTGTA | 0.983
CGGTCCTGCT | 0.969
CCAATGAAGT | 0.968
CTCAGCCGTT | 1.07
ACGCTAGGGA | 1.03
ACTAAGACGT | 1.04
AAAGGCTGAG | 0.989
TATAAAAA | 1.01
GGTGAAAGA | 1
TGGAACAGAA | 1
CGTAGGCCTC | 1
TTTGACGTT | 1.09
TGACAGAAT | 1.01
GCAATAAATT | 0.947
GAATGAGGAG | 0.965
GTTGATGTAC | 1.06
TTGCAGAAAG | 1.02
GAAGTCACCT | 0.992
TCTTGCAGGC | 1.06
GTTTATGTGT | 0.992
GGGTCGAGGC | 1.05

Sequence | switch fluorescence ratio
CAGATTCGCA | 1.01
AAATAAACTA | 1.03
AACGAACTTC | 0.983
TCGCATTGGC | 1.25
AGGTTCATGT | 0.984
CAACTGGTGC | 1.58
CGGTACCCGA | 0.983
TTTTACACGC | 1.01
ATAGTTCGAT | 0.987
CATCTAATTG | 0.995
TGTTAGATGG | 1.01
AGTAACGGT | 1.02
TCCACGGTT | 0.992
GATATGAGTA | 1.02
GGATTATACC | 1.03
AATAAAAAGC | 0.972
CCCAGAAGGT | 1.06
TTGAAGAGCT | 0.934
TGTTCGGTT | 1
ATGAGACTGT | 0.988
TGCAAAAAGA | 0.977
ACCCGGCATA | 1.47
GTTTGAAGTC | 0.946

Sequence | switch fluorescence ratio
AATACGGGTC | 1.1
TTTCTCCAGT | 1.01
TATTTGGCAC | 1.28
TTCCGCTTCT | 1.43
ACGGAGTT | 0.991
CGCTGTGAGG | 1.01
AAATCCCCAT | 1.02
TACCCGGGAT | 1.02
TTCGCCACAT | 1.03
TTGTGGAGTA | 1
CATCTCGGGG | 0.979
CGGATGTGAA | 0.995
AAAAGAGCTG | 1.07
CCTGAACCCT | 1.02
ATAGCTCGAG | 0.98
ATGGATAGC | 0.995
GGCGGTCGTC | 0.978
GGTTGGTCGG | 1
ATCGAGGGG | 0.965
GCGACGGCGG | 1.03
GGGAATGTGC | 1.07
GAAGCTGTTG | 1.03
ATGGAGCTGT | 1.09

Sequence | switch fluorescence ratio
CGCCGCAGAA | 4.5
CTTTCACCT | 1.08
ATGTGCAGAG | 1.03
GCCGCTCGTA | 0.96
TGCCGTATTA | 1.02
GATAATAGT | 1.01
GCAAACCAGG | 2
ATAAATCTGA | 1.03
ACATCTCTAA | 0.968
TTCGTAAACC | 1.06
TTGGAATCAT | 0.964
CGAACTACG | 1.15
CGACATGATG | 1.01
ATCACTTCAC | 1.26
GCTCGGTCTG | 0.989
TTATAACAAA | 1.01
TAACAGACT | 1.1
AATACAATTG | 1.05
TTTCATGCTT | 0.984
AGCAAATGTG | 0.997
